ChEMBL document CHEMBL2203085, “Modification of a promiscuous inhibitor shifts the inhibition from γ-secretase to FLT-3” (Bioorg Med Chem Lett, 2012)

Assays:
[1] = molecular target: MAP kinase-activated protein kinase 2 (Homo sapiens) (UniProt P49137); assay: Inhibition of human recombinant MAPKAP2 expressed in Escherichia coli using CKRREILSRRPSYRK as substrate assessed as residual activity at 1 uM after 15 mins relative to staurosporine
Outline: (§1)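 Part of a 50-kinase panel screen at a single concentration. Residual activity is given as percent of control specific activity, calculated as (measured specific activity/control specific activity) × 100, with staurosporine as the control. The kinase-specific details are in the supplementary data.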

[2] = molecular target: Tyrosine-protein kinase ABL1 (Homo sapiens) (UniProt P00519); assay: Inhibition of human recombinant ABL expressed in insect cells using Ulight-TK peptide as substrate assessed as residual activity at 1 uM after 60 mins relative to staurosporine; outline: as §1
[3] = molecular target: Fibroblast growth factor receptor 1 (Homo sapiens) (UniProt P11362); assay: Inhibition of human recombinant FGFR1 using Ulight-CAGAGAIETDKEYYTVKD as substrate assessed as residual activity at 1 uM after 60 mins relative to staurosporine; outline: as §1
Chain of UniProt P11362 (P11362 whole entry, looked up): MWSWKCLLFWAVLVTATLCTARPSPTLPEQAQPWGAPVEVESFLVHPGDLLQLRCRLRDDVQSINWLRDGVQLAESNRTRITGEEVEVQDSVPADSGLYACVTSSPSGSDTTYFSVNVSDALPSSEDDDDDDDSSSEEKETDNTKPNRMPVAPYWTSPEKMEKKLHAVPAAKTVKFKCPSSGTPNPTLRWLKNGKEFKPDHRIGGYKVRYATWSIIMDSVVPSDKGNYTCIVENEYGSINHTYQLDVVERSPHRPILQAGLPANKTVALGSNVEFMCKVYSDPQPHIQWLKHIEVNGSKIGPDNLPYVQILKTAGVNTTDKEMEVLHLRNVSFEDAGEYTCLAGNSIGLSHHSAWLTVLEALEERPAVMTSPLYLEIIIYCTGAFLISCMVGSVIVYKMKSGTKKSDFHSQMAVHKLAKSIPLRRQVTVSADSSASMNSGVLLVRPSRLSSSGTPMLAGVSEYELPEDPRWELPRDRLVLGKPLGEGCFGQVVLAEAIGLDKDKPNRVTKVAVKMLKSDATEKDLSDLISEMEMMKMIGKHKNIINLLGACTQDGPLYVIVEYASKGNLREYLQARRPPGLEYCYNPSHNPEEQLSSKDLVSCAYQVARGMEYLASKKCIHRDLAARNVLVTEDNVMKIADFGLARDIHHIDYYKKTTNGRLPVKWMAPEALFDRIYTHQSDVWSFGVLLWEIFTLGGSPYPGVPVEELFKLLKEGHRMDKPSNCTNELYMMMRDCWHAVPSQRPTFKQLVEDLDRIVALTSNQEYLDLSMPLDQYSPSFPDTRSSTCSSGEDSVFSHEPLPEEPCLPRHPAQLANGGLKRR

[4] = molecular target: Insulin receptor (Homo sapiens) (UniProt P06213); assay: Inhibition of human recombinant INSR using Ulight-Poly GAT[EAY(1:1:1)]n as substrate assessed as residual activity at 1 uM after 10 mins relative to staurosporine; outline: as §1
[5] = molecular target: MAP kinase-interacting serine/threonine-protein kinase 2 (Homo sapiens) (UniProt Q9HBH9); assay: Inhibition of human recombinant MNK2 expressed in Sf21 cells using CKRREILSRRPSYRK as substrate assessed as residual activity at 1 uM after 90 mins relative to staurosporine; outline: as §1
Chain of UniProt Q9HBH9 (Q9HBH9 whole entry, looked up): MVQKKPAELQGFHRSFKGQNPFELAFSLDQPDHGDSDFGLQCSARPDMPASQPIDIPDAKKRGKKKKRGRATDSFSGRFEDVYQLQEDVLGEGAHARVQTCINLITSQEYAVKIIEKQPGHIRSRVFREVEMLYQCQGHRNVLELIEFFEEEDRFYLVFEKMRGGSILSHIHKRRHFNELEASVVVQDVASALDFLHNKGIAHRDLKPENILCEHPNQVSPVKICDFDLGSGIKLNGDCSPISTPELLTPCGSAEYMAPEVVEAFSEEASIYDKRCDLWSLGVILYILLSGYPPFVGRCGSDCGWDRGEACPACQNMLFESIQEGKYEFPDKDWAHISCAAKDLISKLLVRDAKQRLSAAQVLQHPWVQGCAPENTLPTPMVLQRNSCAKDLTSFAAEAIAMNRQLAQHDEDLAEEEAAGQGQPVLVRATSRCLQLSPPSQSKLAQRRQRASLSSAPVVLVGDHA

[6] = molecular target: Calcium/calmodulin-dependent protein kinase type II subunit alpha (Homo sapiens) (UniProt Q9UQM7); assay: Inhibition of human recombinant CAMK2A using Ulight-CGSGSGRPRTSSFAEG as substrate assessed as residual activity at 1 uM after 30 mins relative to staurosporine; outline: as §1
Chain of UniProt Q9UQM7 (Q9UQM7 whole entry): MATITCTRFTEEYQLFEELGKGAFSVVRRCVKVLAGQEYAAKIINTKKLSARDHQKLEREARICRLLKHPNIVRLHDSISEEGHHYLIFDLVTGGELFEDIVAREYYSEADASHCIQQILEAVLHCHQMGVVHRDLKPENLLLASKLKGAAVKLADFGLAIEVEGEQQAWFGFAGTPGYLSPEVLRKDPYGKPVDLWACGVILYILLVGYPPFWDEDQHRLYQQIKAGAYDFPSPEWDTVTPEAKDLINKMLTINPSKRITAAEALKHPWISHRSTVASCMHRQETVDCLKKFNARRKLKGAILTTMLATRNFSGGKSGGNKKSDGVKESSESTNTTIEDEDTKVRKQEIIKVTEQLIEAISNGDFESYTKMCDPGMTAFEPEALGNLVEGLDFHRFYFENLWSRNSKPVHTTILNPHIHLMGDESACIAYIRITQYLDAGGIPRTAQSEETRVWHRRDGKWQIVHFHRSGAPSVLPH

[7] = molecular target: Mitogen-activated protein kinase 8 (Homo sapiens) (UniProt P45983); assay: Inhibition of human recombinant JNK1 expressed in Escherichia coli using Ulight-CFFKNIVTPRTPPPSQGK-amide as substrate assessed as residual activity at 1 uM after 60 mins relative to staurosporine; outline: as §1
Chain of UniProt P45983 (P45983 whole entry): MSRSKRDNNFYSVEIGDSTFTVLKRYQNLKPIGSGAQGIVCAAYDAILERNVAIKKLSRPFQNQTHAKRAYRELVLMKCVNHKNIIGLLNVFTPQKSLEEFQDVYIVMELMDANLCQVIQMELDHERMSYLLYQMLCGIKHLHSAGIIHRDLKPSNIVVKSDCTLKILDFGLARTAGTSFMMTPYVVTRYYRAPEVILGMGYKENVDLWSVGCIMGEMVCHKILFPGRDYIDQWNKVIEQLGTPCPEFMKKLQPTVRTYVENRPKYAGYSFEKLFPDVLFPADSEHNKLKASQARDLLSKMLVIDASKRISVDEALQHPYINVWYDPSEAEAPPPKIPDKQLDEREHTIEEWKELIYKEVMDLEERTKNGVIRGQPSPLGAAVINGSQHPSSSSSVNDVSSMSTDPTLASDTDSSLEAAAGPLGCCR

[8] = molecular target: Serine/threonine-protein kinase TAO2 (Homo sapiens) (UniProt Q9UL54); assay: Inhibition of human recombinant TAOK2 using Ulight-FLGFTYVAP as substrate assessed as residual activity at 1 uM after 60 mins relative to staurosporine
Outline: (§2)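 Single-point kinase-panel screen at 1 µM test concentration. Specific activity was measured and expressed as percent of the staurosporine control, calculated as (measured specific activity / control specific activity) × 100.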

[9] = molecular target: Ephrin type-A receptor 3 (Homo sapiens) (UniProt P29320); assay: Inhibition of human recombinant EPHA3 using Ulight-TK peptide as substrate assessed as residual activity at 1 uM after 60 mins relative to staurosporine; outline: as §1
[10] = molecular target: Serine/threonine-protein kinase Chk2 (Homo sapiens) (UniProt O96017); assay: Inhibition of human recombinant CHK2 expressed in insect cells using CKRREILSRRPSYRK as substrate assessed as residual activity at 1 uM after 15 mins relative to staurosporine; outline: as §1
[11] = molecular target: Rho-associated protein kinase 1 (Homo sapiens) (UniProt Q13464); assay: Inhibition of human recombinant ROCK1 using Ulight-RRRSLLE as substrate assessed as residual activity at 1 uM after 30 mins relative to staurosporine; outline: as §1
H4 = assay: Cytotoxicity against human H4 cells at 40 uM; assay type: cell-based; details: h4, 40 µM
Outline: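 H4 APP#9 cells were used for cell-based toxicity testing, and toxicity was scored as yes or no at each concentration tested.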

[12] = molecular target: Serine/threonine-protein kinase PAK 2 (Homo sapiens) (UniProt Q13177); assay: Inhibition of human recombinant PAK2 expressed in Sf9 cells using Ulight-RRRSLLE as substrate assessed as residual activity at 1 uM after 60 mins relative to staurosporine; outline: as §1
[13] = molecular target: Ephrin type-A receptor 2 (Homo sapiens) (UniProt P29317); assay: Inhibition of human recombinant EPHA2 using Ulight-TK peptide as substrate assessed as residual activity at 1 uM after 30 mins relative to staurosporine; outline: as §1
[14] = molecular target: Receptor-type tyrosine-protein kinase FLT3 (Homo sapiens, UniProt P36888); assay: Inhibition of human recombinant FLT3 expressed in insect cells using Ulight-CAGAGAIETDKEYYTVKD as substrate after 90 mins by LANCE method
Chain of UniProt P36888 (P36888 whole entry): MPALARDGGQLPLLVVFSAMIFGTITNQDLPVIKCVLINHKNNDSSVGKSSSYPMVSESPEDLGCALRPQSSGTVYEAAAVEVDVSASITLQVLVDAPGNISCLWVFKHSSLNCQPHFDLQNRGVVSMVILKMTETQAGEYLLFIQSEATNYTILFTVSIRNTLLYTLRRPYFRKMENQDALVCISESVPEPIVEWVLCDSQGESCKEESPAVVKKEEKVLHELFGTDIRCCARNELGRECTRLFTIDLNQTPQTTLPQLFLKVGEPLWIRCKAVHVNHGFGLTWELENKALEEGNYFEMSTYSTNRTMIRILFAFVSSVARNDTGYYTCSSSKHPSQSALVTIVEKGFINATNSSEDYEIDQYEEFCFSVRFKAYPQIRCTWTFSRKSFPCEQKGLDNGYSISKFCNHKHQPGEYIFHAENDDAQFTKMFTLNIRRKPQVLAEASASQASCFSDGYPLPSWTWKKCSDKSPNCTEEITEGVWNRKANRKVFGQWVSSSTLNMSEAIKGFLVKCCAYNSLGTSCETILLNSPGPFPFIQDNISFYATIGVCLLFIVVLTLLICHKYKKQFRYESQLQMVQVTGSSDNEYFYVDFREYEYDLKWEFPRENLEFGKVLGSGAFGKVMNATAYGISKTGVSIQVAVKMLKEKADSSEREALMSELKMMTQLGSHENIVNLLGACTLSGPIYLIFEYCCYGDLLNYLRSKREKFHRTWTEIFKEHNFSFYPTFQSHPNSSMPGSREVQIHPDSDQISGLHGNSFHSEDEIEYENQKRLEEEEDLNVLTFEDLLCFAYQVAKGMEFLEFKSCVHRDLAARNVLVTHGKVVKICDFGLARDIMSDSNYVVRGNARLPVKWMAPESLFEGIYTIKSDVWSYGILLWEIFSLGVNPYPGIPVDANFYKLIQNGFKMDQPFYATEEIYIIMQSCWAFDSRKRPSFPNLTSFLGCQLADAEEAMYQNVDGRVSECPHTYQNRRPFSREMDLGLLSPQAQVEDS

[15] = molecular target: High affinity nerve growth factor receptor (Homo sapiens) (UniProt P04629); assay: Inhibition of human recombinant TRKA expressed in insect cells using Ulight-Poly GAT[EAY(1:1:1)]n as substrate assessed as residual activity at 1 uM after 10 mins relative to staurosporine; outline: as §2
[16] = molecular target: Vascular endothelial growth factor receptor 2 (Homo sapiens) (UniProt P35968); assay: Inhibition of human recombinant VEGFR2 expressed in sf9 cells using Ulight-CAGAGAIETDKEYYTVKD as substrate assessed as residual activity at 1 uM after 60 mins relative to staurosporine; outline: as §2
[17] = molecular target: Serine/threonine-protein kinase SIK1 (Homo sapiens) (UniProt P57059); assay: Inhibition of human recombinant SIK expressed in Sf21 cells using CKRREILSRRPSYRK as substrate assessed as residual activity at 1 uM after 90 mins relative to staurosporine; outline: as §1
Chain of UniProt P57059 (P57059 whole entry): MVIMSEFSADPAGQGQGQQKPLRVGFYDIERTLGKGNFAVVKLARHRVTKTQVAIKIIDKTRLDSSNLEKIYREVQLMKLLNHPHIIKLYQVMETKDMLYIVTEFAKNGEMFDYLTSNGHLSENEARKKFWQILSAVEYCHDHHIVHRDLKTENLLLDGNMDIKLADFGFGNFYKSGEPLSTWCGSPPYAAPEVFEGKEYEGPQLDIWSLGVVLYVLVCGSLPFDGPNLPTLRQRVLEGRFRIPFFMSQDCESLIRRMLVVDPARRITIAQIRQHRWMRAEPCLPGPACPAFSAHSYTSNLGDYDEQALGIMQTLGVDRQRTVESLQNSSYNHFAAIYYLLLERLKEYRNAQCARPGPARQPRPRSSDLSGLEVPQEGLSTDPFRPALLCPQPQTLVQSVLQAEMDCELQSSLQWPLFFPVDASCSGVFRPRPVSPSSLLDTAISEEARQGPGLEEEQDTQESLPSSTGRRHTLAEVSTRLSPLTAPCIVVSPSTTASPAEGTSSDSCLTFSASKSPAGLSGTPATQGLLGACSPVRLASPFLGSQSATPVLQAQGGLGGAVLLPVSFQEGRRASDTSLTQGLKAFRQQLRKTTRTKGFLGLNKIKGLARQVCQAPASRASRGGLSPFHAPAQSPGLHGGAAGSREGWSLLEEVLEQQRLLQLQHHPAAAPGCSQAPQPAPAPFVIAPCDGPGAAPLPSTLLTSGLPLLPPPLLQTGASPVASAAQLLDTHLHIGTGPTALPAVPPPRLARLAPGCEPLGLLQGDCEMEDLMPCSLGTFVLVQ

[18] = molecular target: Mitogen-activated protein kinase kinase kinase kinase 4 (Homo sapiens) (UniProt O95819); assay: Inhibition of human recombinant HGK using Ulight-CFFKNIVTPRTPPPSQGK-amide as substrate assessed as residual activity at 1 uM after 90 mins relative to staurosporine; outline: as §1
[19] = molecular target: Proto-oncogene tyrosine-protein kinase Src (Homo sapiens) (UniProt P12931); assay: Inhibition of human recombinant SRC expressed in insect cells using Ulight-Poly GAT[EAY(1:1:1)]n as substrate assessed as residual activity at 1 uM after 10 mins relative to staurosporine; outline: as §2
[20] = molecular target: Interleukin-1 receptor-associated kinase 4 (Homo sapiens) (UniProt Q9NWZ3); assay: Inhibition of human recombinant IRAK4 expressed in insect cells using Ulight-FLGFTYVAP as substrate assessed as residual activity at 1 uM after 90 mins relative to staurosporine; outline: as §1
Chain of UniProt Q9NWZ3 (Q9NWZ3 whole entry): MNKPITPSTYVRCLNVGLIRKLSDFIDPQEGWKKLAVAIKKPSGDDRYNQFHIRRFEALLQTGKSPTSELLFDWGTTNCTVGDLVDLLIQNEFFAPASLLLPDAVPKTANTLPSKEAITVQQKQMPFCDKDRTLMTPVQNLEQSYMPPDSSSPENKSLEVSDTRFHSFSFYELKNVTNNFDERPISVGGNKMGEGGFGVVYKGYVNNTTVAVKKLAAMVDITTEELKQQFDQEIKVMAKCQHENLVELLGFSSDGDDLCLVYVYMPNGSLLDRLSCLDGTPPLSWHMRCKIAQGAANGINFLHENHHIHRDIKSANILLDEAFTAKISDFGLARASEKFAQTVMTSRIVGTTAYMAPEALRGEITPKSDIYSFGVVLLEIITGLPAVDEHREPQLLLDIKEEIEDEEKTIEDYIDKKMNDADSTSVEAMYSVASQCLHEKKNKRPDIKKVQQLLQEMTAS

Danio rerio = species on record: Danio rerio; assay: Toxicity against zebra fish embryo assessed as abnormalities up to 20 uM incubated from 4 hrs to 48 hrs post fertilization by microscopic analysis; assay type: ADME, organism-based; details: zebrafish, in vivo
Outline: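 Zebrafish embryos were collected and kept in E2 medium at 28 °C. Compound was added at 4–5 hpf at 5 or 20 µM alongside untreated controls. Phenotypes were compared with controls at 48 hpf.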

[21] = molecular target: Mitogen-activated protein kinase 14 (Homo sapiens) (UniProt Q16539); assay: Inhibition of human recombinant p38alpha expressed in Escherichia coli using Ulight-CFFKNIVTPRTPPPSQGK-amide as substrate assessed as residual activity at 1 uM after 60 mins relative to staurosporine; outline: as §2
[22] = molecular target: Tyrosine-protein kinase Lck (Homo sapiens) (UniProt P06239); assay: Inhibition of human recombinant LCK expressed in insect cells using Ulight-Poly GAT[EAY(1:1:1)]n as substrate assessed as residual activity at 1 uM after 30 mins relative to staurosporine; outline: as §1
[23] = molecular target: Cyclin-dependent kinase 1/cyclin B1 (Homo sapiens) (UniProt P06493+P14635); assay: Inhibition of human recombinant CDK1/cyclin B expressed in insect cells using Ulight-CFFKNIVTPRTPPPSQGK-amide as substrate assessed as residual activity at 1 uM after 15 mins relative to staurosporine; outline: as §1
[24] = molecular target: Serine/threonine-protein kinase pim-2 (Homo sapiens) (UniProt Q9P1W9); assay: Inhibition of human recombinant PIM2 expressed in insect cells using CKRREILSRRPSYRK as substrate assessed as residual activity at 1 uM after 60 mins relative to staurosporine; outline: as §1
Chain of UniProt Q9P1W9 (Q9P1W9 whole entry, looked up): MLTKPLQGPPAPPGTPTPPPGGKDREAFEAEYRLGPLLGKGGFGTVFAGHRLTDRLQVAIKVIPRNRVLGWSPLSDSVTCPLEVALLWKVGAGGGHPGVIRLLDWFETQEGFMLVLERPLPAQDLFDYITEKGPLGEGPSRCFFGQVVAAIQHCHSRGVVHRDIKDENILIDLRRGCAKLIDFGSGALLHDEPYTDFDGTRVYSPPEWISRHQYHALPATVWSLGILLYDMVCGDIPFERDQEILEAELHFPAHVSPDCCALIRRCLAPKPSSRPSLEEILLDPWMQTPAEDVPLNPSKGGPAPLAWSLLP

Activity [1]: 95.3%
Activity [2]: 95.4%
Activity [3]: 98.2%
Activity [4]: 113%
Activity [5]: 107%
Activity [6]: 103%
Activity [7]: 96.4%
Activity [8]: 95.1%
Activity [9]: 101%
Activity [10]: 94%
Activity [11]: 102%
Activity [12]: 104%
Activity [13]: 101%
IC50 [14]: 4.1 nM
Activity [15]: 87%
Activity [16]: 88.4%
Activity [17]: 119%
Activity [18]: 27.8%
Activity [19]: 101%
Activity [20]: 91.8%
Activity [21]: 99.4%
Activity [22]: 104%
Activity [23]: 106%
Activity [24]: 94.7%
Compound: CCN(CC)CCOc1ccc(/C=C2\C(=O)Nc3ccc(Cl)cc32)cc1
Activity (H4): Toxic
Activity (Danio rerio): Non-toxic
